The text below walks through data of paper PMC9911399, “Two distinct binding modes provide the RNA-binding protein RbFox with extraordinary sequence specificity”.

Where a chain is given by its changes, count along the chain named. This is one part of the list.

The chains are these.
T1: RBFOX1 RRM (Homo sapiens, UniProt Q9NWB1 109-208)
T1 sequence: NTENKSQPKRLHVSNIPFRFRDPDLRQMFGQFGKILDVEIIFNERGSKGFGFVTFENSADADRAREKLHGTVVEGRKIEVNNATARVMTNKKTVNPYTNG

B1: CUUGUUG (DNA:RNA)
RNA: GGGAGACCGGAAUUCAGAUUGUCCCUUGUUGUUAAAUCCCGUCGUAGCCACCA
DNA 1: CAATCTGAATTCCGGTCTCCC
DNA 2: TGGTGGCTACGACGGGATT
B2: CAGUCAG (DNA:RNA)
RNA: B1 RNA with U26A, U27G, G28U, U29C, U30A
DNA 1: CAATCTGAATTCCGGTCTCCC
DNA 2: TGGTGGCTACGACGGGATT
B3: UUUAGGG (DNA:RNA)
RNA: B1 RNA with C25U, G28A, U29G, U30G
DNA 1: CAATCTGAATTCCGGTCTCCC
DNA 2: TGGTGGCTACGACGGGATT
B4: ACGGCGU (DNA:RNA)
RNA: B1 RNA with C25A, U26C, U27G, U29C, U30G, G31U
DNA 1: CAATCTGAATTCCGGTCTCCC
DNA 2: TGGTGGCTACGACGGGATT
B5: AUGGCGG (DNA:RNA)
RNA: B1 RNA with C25A, U27G, U29C, U30G
DNA 1: CAATCTGAATTCCGGTCTCCC
DNA 2: TGGTGGCTACGACGGGATT
B6: CAGUAAA (DNA:RNA)
RNA: B1 RNA with U26A, U27G, G28U, U29A, U30A, G31A
DNA 1: CAATCTGAATTCCGGTCTCCC
DNA 2: TGGTGGCTACGACGGGATT
B7: UACCAUU (DNA:RNA)
RNA: B1 RNA with C25U, U26A, U27C, G28C, U29A, G31U
DNA 1: CAATCTGAATTCCGGTCTCCC
DNA 2: TGGTGGCTACGACGGGATT
B8: GCACGAC (DNA:RNA)
RNA: GGGAGACCGGAAUUCAGAUUGUCCGCACGACUUAAAUCCCGUCGUAGCCACCA
DNA 1: CAATCTGAATTCCGGTCTCCC
DNA 2: TGGTGGCTACGACGGGATT
B9: GGAUCCU (DNA:RNA)
RNA: B8 RNA with C26G, C28U, G29C, A30C, C31U
DNA 1: CAATCTGAATTCCGGTCTCCC
DNA 2: TGGTGGCTACGACGGGATT
B10: GCAUUAU (DNA:RNA)
RNA: B8 RNA with C28U, G29U, C31U
DNA 1: CAATCTGAATTCCGGTCTCCC
DNA 2: TGGTGGCTACGACGGGATT
B11: AAGUUCG (DNA:RNA)
RNA: B1 RNA with C25A, U26A, U27G, G28U, U30C
DNA 1: CAATCTGAATTCCGGTCTCCC
DNA 2: TGGTGGCTACGACGGGATT
B12: GCGAGCG (DNA:RNA)
RNA: B8 RNA with A27G, C28A, A30C, C31G
DNA 1: CAATCTGAATTCCGGTCTCCC
DNA 2: TGGTGGCTACGACGGGATT
B13: UCAUGCC (DNA:RNA)
RNA: B8 RNA with G25U, C28U, A30C
DNA 1: CAATCTGAATTCCGGTCTCCC
DNA 2: TGGTGGCTACGACGGGATT
B14: GUAGUAG (DNA:RNA)
RNA: B1 RNA with C25G, U27A, U30A
DNA 1: CAATCTGAATTCCGGTCTCCC
DNA 2: TGGTGGCTACGACGGGATT
B15: CGCAUGU (DNA:RNA)
RNA: B1 RNA with U26G, U27C, G28A, U30G, G31U
DNA 1: CAATCTGAATTCCGGTCTCCC
DNA 2: TGGTGGCTACGACGGGATT
B16: AGUAGGA (DNA:RNA)
RNA: B1 RNA with C25A, U26G, G28A, U29G, U30G, G31A
DNA 1: CAATCTGAATTCCGGTCTCCC
DNA 2: TGGTGGCTACGACGGGATT
B17: ACCGGCG (DNA:RNA)
RNA: B1 RNA with C25A, U26C, U27C, U29G, U30C
DNA 1: CAATCTGAATTCCGGTCTCCC
DNA 2: TGGTGGCTACGACGGGATT
B18: UAGUGGC (DNA:RNA)
RNA: B8 RNA with G25U, C26A, A27G, C28U, A30G
DNA 1: CAATCTGAATTCCGGTCTCCC
DNA 2: TGGTGGCTACGACGGGATT
B19: ACAAGAU (DNA:RNA)
RNA: B8 RNA with G25A, C28A, C31U
DNA 1: CAATCTGAATTCCGGTCTCCC
DNA 2: TGGTGGCTACGACGGGATT
B20: AAGCUGA (DNA:RNA)
RNA: B1 RNA with C25A, U26A, U27G, G28C, U30G, G31A
DNA 1: CAATCTGAATTCCGGTCTCCC
DNA 2: TGGTGGCTACGACGGGATT

This assay has as its target T1, RBFOX1 RRM. Kind of assay: EMSA; HiTS-Eq, 1 nM pool, 10 min; buffer printed only for the single-RNA assays: 10 mM Tris pH 7.5, 150 mM NaCl, 3.4 mM EDTA, 0.001% NP-40, 30 C. The note with it: tags: His6 N-terminal (pET28a); label: 5' 32P. A digest of the protocol:
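Purified wild-type or mutant RbFox RRM at increasing concentrations was equilibrated with 1 nM of 5′-radiolabelled RNA carrying 7 randomized nucleotides for 10 min in 50 µL. Unbound RNA was separated by 8% native PAGE and sequenced. Relative association constants came from read-count changes of each RNA species compared with the control reaction, normalised to the cognate motif.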
Background: Mobility shift assays separate free from complexed probe on a gel.
On to B1, for which the binding signal is 0.0189 KA relative to UGCAUGU. Under B2 stands 0.011 KA relative to UGCAUGU; under B3, 0.00239 KA relative to UGCAUGU.

Consider B4, for which the binding signal is 0.0141 KA relative to UGCAUGU.

For B5, the binding signal was 0.0185 KA relative to UGCAUGU. On to B6, for which the binding signal was 0.000629 KA relative to UGCAUGU. With B7, the binding signal is 0.00289 KA relative to UGCAUGU. For B8, the binding signal is 0.0177 KA relative to UGCAUGU.

Regarding B9, the binding signal was 0.0186 KA relative to UGCAUGU. Regarding B10, the binding signal is 0.00446 KA relative to UGCAUGU.

Regarding B11, the binding signal was 0.0121 KA relative to UGCAUGU. Under B12 stands 0.017 KA relative to UGCAUGU; under B13, 0.0112 KA relative to UGCAUGU. For B14, the binding signal was 0.0103 KA relative to UGCAUGU. Consider B15, for which the binding signal was 0.735 KA relative to UGCAUGU. Under B16 stands 0.00131 KA relative to UGCAUGU; under B17, 0.00782 KA relative to UGCAUGU; under B18, 0.00551 KA relative to UGCAUGU.

With B19, the binding signal is 0.00323 KA relative to UGCAUGU. Under B20 stands 0.00803 KA relative to UGCAUGU.
